Data as given in article PMC12136788.
This is one part of the list.

T1: UNK ZnF1-3 (human, UniProt Q9C0B0 31-174)
T1 sequence: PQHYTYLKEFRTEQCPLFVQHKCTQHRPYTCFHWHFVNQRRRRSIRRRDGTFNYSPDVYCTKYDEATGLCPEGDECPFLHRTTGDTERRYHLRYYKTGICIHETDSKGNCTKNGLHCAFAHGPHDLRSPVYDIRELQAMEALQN

B1: chr7:65705844:65705845:+_ENSG00000169902_ENST00000304842|hu_mus|hu_hu_hu_mus_False|78_108 (ssRNA)
RNA: GGGAGUUCUACAGUCCGACGAUCAAAAGGAUCUUUAUUACAUAAAUAAGGUGCCGGCUCCCCAUGCUUAACAAUGACCUCCAGAAGGAAGGCUUGCAUGGCAGAAUCUAGCACUUCAUCUGUGACACCCGCCUCAUCCAAGCGCAACAGAGGAUUGAGCAUCA
B2: chr7:149068622:149068623:-_ENSMUSG00000025139_ENSMUST00000001950|mus_hu|mus_mus_mus_hu_False|1_58 (ssRNA)
RNA: GGGAGUUCUACAGUCCGACGAUCGUGAGGCCUCUGAGUGUGGCUUGUGGUCUGUCCUGGGUUAGAGUUGUUAAUAUCACUAAGUGGACCAUCUAGAACGUUCCAGUCCCGCCUGACACCUUCAUUCCCAAUGGAGAAUCUGCUCAACAGAGGAUUGAGCAUCA
B3: 86748150_86749805_1536_CDS_ENSMUSG00000035671_ENSMUST00000039480|mouse|control|control (ssRNA)
RNA: GGGAGUUCUACAGUCCGACGAUCGACACCAGUAGCACCUUUCUGGAGCAGUUCUUUUUUCUGCUGCUUGUAGCUCUCAAGCUGGUGUCGCCUCUGCAGGCGCAGGGUGUUGAUUAUGGCACACGCCAGCCGCAGAGCCUUGUGCAACAGAGGAUUGAGCAUCA
B4: chr11:50626376:50626377:-_ENSMUSG00000044807_ENSMUST00000109135|mus_hu|FALSE|FALSE (ssRNA)
RNA: GGGAGUUCUACAGUCCGACGAUCAAAUCCUUCGUUAGUACAAUGAAAGGCUAUAAUUAAACUAAAAUCUCUCCUGGCUCUAAUGAGCUACCAGACAUGCAGCCUGAGAUUCUGCCAAAUACAUCCCUUCUGCAACAGAUAACACAACAGAGGAUUGAGCAUCA
B5: 71115185_71126082_151_3pUTR_ENSMUSG00000031391_ENSMUST00000102871|mouse|control|control (ssRNA)
RNA: GGGAGUUCUACAGUCCGACGAUCAUUCCACUCACCCUCCUGCUGGUGGUUUGUUUCCAGCGGUAGCUGCUGACAGGGGCGGGGGGGGGGCGUACUGCGCCGAUCAGGUUGCCAGCUCAGUCUCUGUGCACGCCGACCUCGGACCAACAGAGGAUUGAGCAUCA
B6: 53190817_53190937_963_CDS_ENSG00000177200_ENST00000398510|human|control|control (ssRNA)
RNA: GGGAGUUCUACAGUCCGACGAUCUGAAAAGGAAUUACUUCCAGUAAAAUCAGAUAAAGUCUGAUUUGUAUGAUUAGAUGCAAGAACUGCAGAGGACUGAAGUAGACUGUUUGGUGAUAUAUGAUUACUGGAAAAGGAAUAAUGCAACAGAGGAUUGAGCAUCA
B7: 58143647_58144814_1295_CDS_ENSG00000068097_ENST00000184956|human|control|control (ssRNA)
RNA: GGGAGUUCUACAGUCCGACGAUCAAAAGCUGACCAGUAGCCAUAAAGAACUUUUUUUUCUAUCGAUUUUAUAGUAGAAAGAAAACAAACUAAGGCUCCUUGGCGAACUUUAGCUUGGUAAGACCUCAUUUUACUCUGCAUGCCCAACAGAGGAUUGAGCAUCA
B8: 90990506_90993036_620_3pUTR_ENSG00000104320_ENST00000265433|human|control|control (ssRNA)
RNA: GGGAGUUCUACAGUCCGACGAUCUUCUGGCUUUACAAUUGGACGUCCACAAAUGAGUGCACAUAUUGUUUUAAUGGUAACUUUCACUGAUACCAUGACAAGGUGAGUGCAUUCUUCUGUCCAAUUGUUUACAGUAAAUCCUCCCAACAGAGGAUUGAGCAUCA
B9: chr17:56552419:56552420:-_ENSMUSG00000013236_ENSMUST00000086828|mus_mus|mus_mus_mus_hu_False|8_58 (ssRNA)
RNA: GGGAGUUCUACAGUCCGACGAUCAAAAAAUACACUAUUUAAAAAAAAUGAAAUGUCACGGGAUACAGUUACACUGACACUAUUAAAAGAAAGCUGGAUUCUGGUCCCAGCCCAGUGUCCCCAGGCUGAGUGCGGAAGAGGAGCCAACAGAGGAUUGAGCAUCA
B10: chr10:62545423:62545424:+_ENSG00000170312_ENST00000395284|hu_hu|motif|central (ssRNA)
RNA: GGGAGUUCUACAGUCCGACGAUCAAACUCAAAGAUGAGAUAUAACCUGGAAUCCUGCAUAAGCACAUCCUGAAGACUGACGGUAUUUGGAUGACGAAGUUCCUUUAAUAGAGAAAUUUCCCGAAUUGCAGUACUAGGAACCCCCAACAGAGGAUUGAGCAUCA
B11: 132269891_132270011_1185_3pUTR_ENSG00000072364_ENST00000265343|human|control|control (ssRNA)
RNA: GGGAGUUCUACAGUCCGACGAUCGCUUCAGCUCAGUCAUGCUGUUGCCAUGGGAUUGGCUGCUGUAGUGCUCAGAGGACAGCUUUGGUUCCAUGGACUCCUGUCCGUCCAUGGGCCGCACAUAGGCAGUGGGUUUCUGUAACACAACAGAGGAUUGAGCAUCA
B12: 22161204_22161324_3265_3pUTR_ENSG00000136237_ENST00000344041|human|control|control (ssRNA)
RNA: GGGAGUUCUACAGUCCGACGAUCAAUCAUAUUAUGUCCAAUAAAAGAUAAGAGCCUGCUUAGAAGUAUAAAGAAAAUCCCCAGAAAUUAAACAAUGAGUCAAUUUCUUAAAGAUUACUAUUUUUCCUUACUGGCAAAGCAACUCAACAGAGGAUUGAGCAUCA
B13: chr1:66461069:66461070:+_ENSMUSG00000015222_ENSMUST00000114013|mus_hu|FALSE|FALSE (ssRNA)
RNA: GGGAGUUCUACAGUCCGACGAUCCUGACUGUCCGUUUUUACAAUGACAUGGUUUUCAUCAGUUACCGGGGGCAAGCCAGUACGACUAUCCUCAACCACAGUCUCUGAUGGGACUGAUUUCCUCCUGGCAACCUCAGCAUCUGCCAACAGAGGAUUGAGCAUCA
B14: chrX:71549762:71549763:+_ENSMUSG00000019087_ENSMUST00000019231|mus_mus|mus_mus_mus_hu_False|1_38 (ssRNA)
RNA: GGGAGUUCUACAGUCCGACGAUCAAACCCGUGUACUUCUUAUUGUUAGCACAACAUCACCAGAAAACGAUAACGACAGCCAAGCAGGACAGACAGUCAAGUAGUCUUUCCACACUCCCAAACUCAGGGAGCCCUAUAGUUCAUCAACAGAGGAUUGAGCAUCA
B15: chr11:4127340:4127341:+_ENSG00000167325_ENST00000300738|hu_mus|hu_hu_hu_mus_False|28_78 (ssRNA)
RNA: GGGAGUUCUACAGUCCGACGAUCGGCAUAGUCAGGGUGCUUCGUGGUCAAGGUCGCAGCUGUUUCAGCAGCCAGGGUGUCCAGUUCCACUGUGGUGACCCCACUAUACAAGCCUUGGAUUACUUUCAUGGUGAUCUGAGCAGGCAACAGAGGAUUGAGCAUCA
B16: chr12:493273:493274:-_ENSG00000073614_ENST00000399788|hu_mus|hu_hu_hu_mus_False|38_108 (ssRNA)
RNA: GGGAGUUCUACAGUCCGACGAUCUUUUCUCUCUACCACAGGGAUCUUCAAUGUAGAUCCUUGAAGUUCCCAAAAUUUUGCCAGUUGAUCCAAGAAGUCCAAUCUCACUCUAGUCAUUGCCUCAAGUUCAUUCAGGCGCUGGACCAACAGAGGAUUGAGCAUCA
B17: 92021576_92025768_2689_CDS_ENSG00000001629_ENST00000265742|human|control|control (ssRNA)
RNA: GGGAGUUCUACAGUCCGACGAUCAUCAGGGUCUGGAGGAUUACUGAGUAGACUGUGAACAUCUCCUCGACGACGUUGUCUGUGCCUCCUCCGAUACUGAAAUUCAGCAUAUUCCUCUGGUGAUGCAAAUCCUAAAUAUUCCCACAACAGAGGAUUGAGCAUCA
B18: chr10:71917581:71917582:-_ENSG00000079332_ENST00000373241|hu_mus|motif|central (ssRNA)
RNA: GGGAGUUCUACAGUCCGACGAUCCUCAACUUUGGAUUCCAUGAGACGAGAAUGAUCCGCACAGUCCACCAGAAAAACGGUGCCAUUAAUCGCUGGGAGAUAAUUUUUCCAAACGCGACGUGCUUGCUCAUGCCCACCGAGAUCCAACAGAGGAUUGAGCAUCA
B19: chr11:79252212:79252213:+_ENSMUSG00000020716_ENSMUST00000071325|mus_hu|motif|central (ssRNA)
RNA: GGGAGUUCUACAGUCCGACGAUCACUAGAAGGAAUAUCACAUCCUACCCCGUAAAAAAGGAGAAAGUGACAGGAACUUCGGUCUGCCUGCUUAUUUUUAAGAAGAAAUUUAUUCCUGCAGAUCAAUAUUUCCCGCAACCACUUCAACAGAGGAUUGAGCAUCA
B20: chr5:93611588:93611589:-_ENSMUSG00000063015_ENSMUST00000058550|mus_hu|FALSE|FALSE (ssRNA)
RNA: GGGAGUUCUACAGUCCGACGAUCCUUGAGUCAUGGCUGUCACACUGAAAUAAUUUGUUCAUUCAACUGCAGUGAAAAUCAAUAUAGAUCAACAUGCAUAAAGUUCAGUAACUAUUAAAUGGAGAAGCAAGCAAAAGCAACAGGCAACAGAGGAUUGAGCAUCA
B21: chr5:24319680:24319681:-_ENSMUSG00000028945_ENSMUST00000030787|perfect_dup|FALSE|FALSE (ssRNA)
RNA: GGGAGUUCUACAGUCCGACGAUCAAGUUGAAGAUGAUAUUCUUGUCCAUUUACUGUGAUCAACUUUGUAAAAGUGUUUUCUAUGGUUGGAUCGUAGGAGUCCACAAAUUGGCCUUCAACAAAUUGAAUCGUCAAUGAGGAUUUCAACAGAGGAUUGAGCAUCA
B22: chrX:35959125:35959126:+_ENSMUSG00000000355_ENSMUST00000000365|mus_hu|FALSE|FALSE (ssRNA)
RNA: GGGAGUUCUACAGUCCGACGAUCAUUUGCUCCACUGAGUACAAAUUUGAUGGCUCCUUUAUCAACCUGCUGGUGUGGCAGGAUAAAAGGAUAUUUGUGAAGUAAUCUUAGGGUUGGAUAAAAAGGCCCUUCUCUUUGUCUAAACAACAGAGGAUUGAGCAUCA

These binders were tested against T1, UNK ZnF1-3 (assay: nsRBNS (natural sequence RNA bind-n-seq); RBNS binding buffer (assumed for nsRBNS): 25 mM Tris pH 7.5, 150 mM KCl, 3 mM MgCl2, 0.01% Triton X-100, 500 ug/ml BSA, 20 U/ml SUPERase-In, 4 C; UNK is unkempt and MSI1 is Musashi-1; names of the RNAs are library labels; protein concentration not given here; high values mean tight binding).

Binder | binding signal [enrichment R]
B1 | 0.468
B2 | 0.86
B3 | 0.512
B4 | 0.964
B5 | 1.34
B6 | 1.92
B7 | 0.699
B8 | 0.431
B9 | 2.64
B10 | 1.11
B11 | 0.753
B12 | 0.676
B13 | 0.803
B14 | 1.15
B15 | 0.947
B16 | 0.895
B17 | 0.927
B18 | 1.42
B19 | 1.2
B20 | 2.2
B21 | 0.949
B22 | 0.603
